Data as given in the supplement of paper PMC12217912.
This is one part of the list. Sequences were assembled here from the parent chain. Inactive controls read about 0.05.

B1: TEV protease; numbered along this chain (parent)
chain: MGESLFKGPRDYNPISSSICHLTNESDGHTTSLYGIGFGPFIITNKHLFRRNNGTLVVQSLHGVFKVKDTTTLQQHLVDGRDMIIIRMPKDFPPFPQKLKFREPQREERICLVTTNFQTKSMSSMVSDTSCTFPSGDGIFWKHWIQTKDGQCGSPLVSTRDGFIVGIHSASNFTNTNNYFTSVPKNFMELLTNQEAQQWVSGWRLNADSVLWGGHKVFMVKPEEPFQPVKEATQL

Variants of: B1
Assay: raw area under fraction-flipped curve 0-4 h after induction (AUC4h, not background-subtracted), DNA-recorder readout of cleavage of the substrate (dimensionless); higher = more cleavage of the substrate by the protease variant
Conditions: temperature: 34 °C; time window: 0-4 h after rhamnose induction
Experimental: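 In vivo DNA recorder in E. coli TOP10(DE3) ΔrhaA at 34 °C. Each TEVp single-site mutant (parent TEVp 0) is paired with a single-site variant of the 7-mer TEVs (canonical ENLYFQ|S). The substrate sits between flexible linkers in a Bxb1-sfGFP-TEVs-SsrA fusion, so cleavage stabilises Bxb1 and speeds flipping of a recombination array, read by NGS. The value is the raw area under the fraction-flipped curve over 0-4 h after rhamnose induction (AUC4h), with ≥20 reads per time point. It is not background-subtracted; inactive controls average about 0.047.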
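Also: Bxb1 expression induced with 0.2% (w/v) L-rhamnose at OD600 near 0.5, cultures sampled hourly, flipped fraction per protease–substrate barcode pair counted by paired-end Illumina sequencing.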

Row | Variant | area with substrate ENLYDQS | area with substrate ENLYEQS | area with substrate ENLYGQS | area with substrate ENLYHQS | area with substrate ENLYIQS | area with substrate ENLYKQS | area with substrate ENLYMQS | area with substrate ENLYNQS | area with substrate ENLYPQS | area with substrate ENLYQQS | area with substrate ENLYRQS | area with substrate ENLYTQS | area with substrate ENLYVQS | area with substrate ENLYSQS | area with substrate ENLYWQS | area with substrate ENLYLQS | area with substrate ENLYYQS
1 | L156A | 0.0531 | 0.0679 | 0.0534 | 0.0623 | 0.1 | 0.0728 | 0.0863 | 0.0788 | 0.0713 | 0.0638 | 0.0757 | 0.07 | 0.123 | – | – | – | –
2 | L99T | 0.0539 | 0.0553 | 0.0601 | 0.0731 | – | 0.06 | – | 0.0765 | 0.0588 | 0.0598 | 0.054 | – | – | – | – | – | –
3 | F95P | 0.0776 | 0.0516 | – | 0.0457 | – | – | – | – | 0.0351 | 0.0516 | 0.0395 | 0.0443 | 0.0576 | 0.0485 | 0.0575 | – | –
4 | Q197H | 0.0646 | 0.077 | – | 0.0598 | – | 0.058 | 0.0788 | – | 0.063 | 0.0707 | 0.0714 | – | 0.107 | – | – | – | –
5 | G213I | 0.0578 | 0.0591 | 0.0556 | 0.0547 | 0.0568 | – | 0.0795 | – | 0.0485 | 0.0568 | – | – | – | – | 0.0535 | – | –
6 | T181W | 0.0604 | 0.0606 | – | 0.0663 | 0.0818 | – | 0.0573 | 0.0604 | 0.0491 | – | 0.0465 | – | – | – | – | – | –
7 | Q197L | 0.0557 | 0.0793 | 0.0522 | 0.0608 | 0.132 | 0.0499 | – | 0.0783 | 0.0777 | – | 0.0626 | – | – | – | 0.0823 | 0.105 | –
8 | E231Y | 0.0564 | 0.066 | – | 0.0689 | – | – | 0.0765 | 0.0856 | 0.0613 | – | 0.0683 | 0.0588 | – | – | 0.0567 | 0.0781 | 0.0536
9 | M188K | 0.0477 | 0.052 | – | 0.066 | – | 0.0665 | 0.0598 | 0.0651 | 0.0744 | 0.0707 | 0.0524 | 0.0808 | 0.147 | 0.0837 | 0.0779 | 0.0648 | 0.067
10 | A232D | 0.0544 | – | – | 0.0572 | 0.139 | 0.0583 | – | 0.0717 | 0.0613 | 0.0664 | – | 0.0865 | 0.142 | – | 0.102 | – | 0.0378
11 | N53H | 0.0599 | 0.0681 | – | 0.0811 | 0.115 | 0.0596 | – | 0.0682 | 0.076 | – | 0.0633 | 0.0854 | 0.099 | 0.0709 | 0.0673 | 0.0886 | –
12 | Q227H | 0.0587 | 0.0741 | 0.0738 | – | – | 0.0623 | – | 0.0609 | – | 0.0484 | 0.077 | – | – | – | – | 0.133 | 0.0551
13 | V220H | 0.0605 | 0.071 | 0.0654 | 0.0597 | – | 0.0639 | 0.0805 | 0.0713 | 0.0813 | 0.0825 | – | – | 0.0494 | 0.0668 | 0.0861 | 0.103 | 0.0549
14 | R109S | 0.0508 | 0.065 | 0.0868 | 0.0657 | 0.0779 | 0.0667 | 0.0914 | 0.068 | 0.0974 | – | – | – | 0.112 | – | 0.0867 | 0.0599 | 0.071
15 | R51V | 0.0563 | 0.0618 | 0.098 | 0.0797 | 0.0808 | 0.0601 | 0.0896 | 0.0502 | 0.0544 | 0.0497 | – | – | 0.109 | 0.0732 | 0.0985 | 0.0687 | –
16 | D82S | 0.039 | – | – | 0.0616 | 0.0615 | 0.0706 | – | – | – | – | 0.064 | – | – | – | – | – | –
17 | L235D | 0.0704 | – | – | – | 0.14 | – | – | 0.046 | – | – | – | – | – | – | 0.0976 | – | –

Row | Variant | area with substrate ENLYDQS | area with substrate ENLYEQS | area with substrate ENLYGQS | area with substrate ENLYHQS | area with substrate ENLYIQS | area with substrate ENLYKQS | area with substrate ENLYMQS | area with substrate ENLYNQS | area with substrate ENLYPQS | area with substrate ENLYQQS | area with substrate ENLYRQS | area with substrate ENLYTQS | area with substrate ENLYVQS | area with substrate ENLYSQS | area with substrate ENLYWQS | area with substrate ENLYLQS | area with substrate ENLYYQS
18 | F92M | 0.0621 | 0.0661 | – | 0.0635 | – | – | – | 0.068 | – | – | – | – | 0.134 | 0.0994 | – | – | –
19 | V210W | 0.0439 | 0.047 | 0.0583 | – | – | 0.0597 | – | 0.0718 | 0.0842 | 0.0467 | 0.0395 | – | – | 0.0679 | – | 0.0886 | 0.0606
20 | P134A | 0.0363 | – | 0.033 | – | – | 0.0559 | 0.0852 | – | – | 0.07 | – | – | – | 0.0696 | – | – | –
21 | F180Y | 0.0659 | 0.0519 | 0.0629 | 0.069 | 0.137 | – | 0.0806 | 0.0677 | 0.0629 | – | 0.0646 | – | – | 0.0668 | 0.0965 | 0.102 | 0.0652
22 | I19D | 0.0503 | 0.0512 | 0.0435 | 0.0556 | 0.0497 | 0.0247 | 0.0412 | 0.0422 | 0.0526 | 0.0573 | 0.0491 | 0.0399 | 0.0474 | 0.0455 | 0.045 | – | 0.0491
23 | S201T | 0.0539 | 0.077 | 0.0726 | – | – | 0.0924 | – | – | 0.0791 | 0.0853 | 0.0605 | – | – | 0.0869 | 0.0574 | – | –
24 | I86H | 0.0616 | – | – | – | 0.0527 | 0.0346 | – | 0.035 | – | – | 0.0307 | – | – | 0.0296 | 0.0446 | – | 0.0238
25 | S135M | 0.0422 | 0.0528 | 0.0561 | 0.0563 | 0.0716 | – | 0.0677 | 0.0554 | 0.0614 | 0.0541 | 0.0688 | 0.0501 | – | 0.0599 | 0.0623 | – | 0.0499
26 | T233A | 0.0607 | – | 0.0582 | 0.0749 | 0.111 | – | – | – | 0.065 | 0.0554 | 0.0508 | 0.071 | – | – | 0.0807 | – | –
27 | L205P | 0.066 | 0.0553 | – | 0.0478 | 0.0447 | 0.0479 | – | 0.0475 | 0.035 | – | – | 0.0531 | – | – | – | – | 0.0524
28 | I15R | 0.0491 | – | – | 0.0534 | 0.0505 | – | 0.0471 | – | – | – | – | – | – | 0.057 | 0.0476 | – | –
29 | E107V | 0.0599 | 0.0794 | – | 0.0681 | 0.137 | 0.0715 | – | 0.0708 | – | – | 0.0754 | 0.0843 | – | – | 0 | 0.0991 | –
30 | N206W | 0.0722 | 0.0649 | 0.0603 | 0.0547 | 0.0844 | 0.0462 | 0.0701 | 0.055 | 0.0661 | 0.0523 | 0.0758 | 0.0907 | 0.0604 | 0.06 | 0.0665 | – | –
31 | M188G | 0.0651 | 0.0718 | 0.0586 | 0.0653 | 0.11 | 0.0586 | 0.092 | 0.0754 | 0.0598 | – | 0.0422 | – | 0.165 | – | 0.0619 | – | 0.0603
32 | G213P | 0.0306 | 0.0472 | – | – | – | – | – | – | 0.0603 | – | – | – | – | – | – | – | –
33 | E195I | 0.0724 | – | – | 0.0576 | 0.0908 | – | – | 0.0699 | – | 0.0527 | 0.0604 | 0.0773 | 0.118 | – | – | – | 0.0515
